The test deals with NCI-H322M lung. As to the kind of experiment: growth of human tumour cells (NCI), 48 h.

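Compound exposure: 48 hours, 5 concentrations, 96-well plates. GI50 is the concentration that inhibits growth by half. The concentration for full growth arrest is given as TGI.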

The molecule `N#CC(C#N)=c1c2ccccc2c(=C(C#N)C#N)c2ccccc12` had a TGI of 30.9 µM.
Consider `N#Cc1nc(C#N)c(Sc2ccccc2)c(Sc2ccccc2)c1Sc1ccccc1`, for which the GI50 is 4.81 µM and the TGI amounted to 21.3 µM.
The like results for `O=C(/C=C/c1ccccn1)c1ccc(OCc2nnc(-c3ccc(Cl)cc3)o2)cc1` were, in that order, 3.06 µM and 8.53 µM.
For `CC(C)OC(=O)[C@H]1ON2O[C@H](O[C@@H]3CCCC[C@H]3c3ccccc3)C([Si](C)(C)c3ccccc3)[C@H]3OC(=O)[C@@H]1C32` (stereo partly drawn), the TGI is more than 100 µM.
`C[C@]12CC[C@H](O)CC1=CC[C@@H]1C2CC[C@]2(C)C(=O)NC(=O)CC12` (stereo partly drawn) returned a TGI of more than 100 µM.
Turning to `COc1ccc(C2C(C#N)=C(N)Oc3c2sc2c(Br)cccc32)cc1` (stereo not drawn), the GI50 is 4.73 µM and the TGI was found to be 24.2 µM.
On to `COc1ccc(CCNC(=O)c2ccccc2C2c3ccc(OCc4ccccc4)cc3Oc3cc(OCc4ccccc4)ccc32)cc1OC`, for which the TGI was more than 100 µM.
The molecule `COc1ccc(-c2oc3cc(OC(C)=O)cc(OC(C)=O)c3c(=O)c2OC)cc1` came in with a TGI of 73.1 µM.
The same measure, in the same setting: to `O=C1c2ccccc2C(=O)c2c(NC(=O)C3CC3)ccc(NC(=O)C3CC3)c21` belongs more than 100 µM.
Turning to `c1ccc(-c2n(Cc3ccc4ccccc4c3)c3ccccc3[n+]2Cc2ccc3ccccc3c2)cc1`, the GI50 is 1.2 µM and the TGI turned out to be 2.45 µM.
Molecule `O=C(Nc1ccc(Cl)cc1C(=O)O)c1ccc([N+](=O)[O-])cc1` came in with a TGI of 54 µM.
`COc1ccc(-c2cc(-c3ccc(Cl)cc3)nc(NCCCCNc3ccnc4cc(Cl)ccc34)n2)cc1`: the GI50 was 15.1 µM and the TGI was found to be 31.3 µM.
In the case of `O=C(CC1C(=O)Nc2ccccc2S1(=O)=O)Nc1ccc(Cl)cc1` (stereo not drawn), the TGI was more than 100 µM.
Regarding `O=C(Nc1cc(Cl)ccc1O)c1ccccc1Nc1ccnc(C(F)(F)F)c1`, the GI50 was 3.52 µM and the TGI was 15.8 µM.
Regarding `CC(=O)Nc1cc2cc(NS(=O)(=O)c3ccc(Cl)c(Cl)c3)ccc2oc1=O`, the TGI is more than 100 µM.
As for `CCOC(=O)CSC1NC(C(=O)OC)CC1OC` (stereo not drawn), the TGI was more than 100 µM.
With `NCCCNc1nc2ccccc2c2c(=O)c3cccc(Cl)c3sc12`, the GI50 was 1.46 µM and the TGI is 2.84 µM.
As to `CN(C)CCCNC(=O)c1cc(NS(=O)(=O)c2ccc3c(c2)C(=O)c2ccccc2C3=O)cn1C`, the TGI worked out at 41.9 µM.
`CO[C@]12S[C@@H]3CCCC[C@@]31C(C)(C)C(=O)N2c1ccccc1` returned a TGI of more than 100 µM.
Take `O=C1C=C(OCC=C(C(F)(F)F)C(F)(F)F)c2ccccc2C1=O`: the GI50 was 2.65 µM and the TGI was 6.34 µM.
In the same order, the values of `c1ccc(Oc2ccc(Nc3ncc(-c4ccccc4)o3)cc2)cc1` are more than 25 µM and more than 25 µM.
The like results for `CCC(C)C1=C(O)[N+]2([O-])Oc3ccc(C4=C(O)C(=O)C(c5ccc(O)cc5)=C(O)C4=O)cc3OC2(C(C)CC)C(=O)N1O` (stereo not drawn) were, in that order, 37.8 µM and more than 100 µM.
In turn, `O=C1C=C2CCCC2C(C(=O)O)(C(=O)O)C1` (stereo not drawn) displayed a TGI of more than 100 µM.
The same measure, in the same setting: as for `CCOC(=O)CCC(NC(=O)c1ccc(Oc2nc3c(N)cc(C(F)(F)F)cc3nc2-c2ccccc2)cc1)C(=O)OCC` (stereo not drawn), the figure is more than 100 µM.
The molecule `Cc1ccc(/C=C/C(=O)c2sc(-n3nc(-c4ccccc4)cc3-c3ccccc3)nc2C)cc1` returned a TGI of more than 100 µM.
Still for that read-out and setting: as for `COC(=O)c1c(C)c2c(c(C)c1C(=O)OC)-c1c(C)ccc3ccc(C)c-2c13`, the figure is more than 100 µM.
For the molecule `CCCCCCCCCCCCN=C(N)c1ccc(N2CCN(c3ccc(C(N)=NCCCCCCCCCCCC)cc3)CC2)cc1`, the GI50 is 10.6 µM and the TGI is 28.7 µM.
Take `CCOC(=N)CC(=O)Nc1ccccc1`: the TGI is more than 46.4 µM.
For the molecule `O=S(=O)(O)c1ccc2c(N=Nc3ccc(S(=O)(=O)O)c4ccccc34)c(O)c(S(=O)(=O)O)cc2c1`, the TGI is more than 100 µM.
Still for that read-out and setting: as for `NC(Cc1c[nH]c2ccc([N+](=O)[O-])cc12)C(=O)O` (stereo not drawn), the figure is more than 100 µM; as for `COS(C)(=O)=O`, more than 2 µM; as for `CC1(C)C(=O)C(C)(C)C1=NNC(N)=S`, more than 100 µM.
`O=C(Nc1cc(F)c(F)cc1C(=O)O)c1ccc(-n2ccnc2)nn1`: the GI50 was more than 100 µM and the TGI was more than 100 µM.
`Nc1cccc(OCC2CCCN3CCCCC23)c1` (stereo not drawn): the TGI worked out at 30.2 µM.
On the same count and under the same terms, as for `CC(=O)OCC1OC(NC(=O)N(CCCl)N=O)C(OC(C)=O)C(OC(C)=O)C1OC(C)=O` (stereo not drawn), the figure is more than 100 µM; as for `NC(CCP(=O)(O)O)C(=O)O` (stereo not drawn), more than 100 µM; as for `c1ccc2c(c1)c1c3c(c4c(n32)=NCCN4)CCC1`, more than 100 µM.
On to `CCCCOc1ccc(/C=N/Nc2cc(C)nc3ccc(Br)cc23)cc1`, for which the GI50 is 1.76 µM and the TGI came out at 3.15 µM.
The like results for `COc1ccc2c(c1)/C(=C\c1c(-c3cc(OC)ccc3OC)nc3sccn13)C(=O)N2` were, in that order, 12.9 µM and 25.8 µM.
As to `O=C1c2cccc(O)c2C(=O)c2c(O)cccc21`, the TGI is more than 100 µM.
Consider `CC(=O)Nc1ccc(S(=O)(=O)N=S(C)C)cc1`, for which the TGI is more than 100 µM.
In turn, `COc1ccc(OC)c(/C=C2\CCc3ccccc3C2=O)c1` showed a TGI of 51.3 µM.
The same measure, in the same setting: to `CCCCNC(=S)OCCC(C)CCCC(C)C` (stereo not drawn) belongs more than 100 µM; to `CC(C)COC1Sc2ccccc2S1`, 31.3 µM.
In turn, `COc1cc2c(c(OC)c1OC)-c1ccc(SC)c(=O)cc1[C@@H](NC(=O)C(F)(F)F)CC2` yielded a TGI of 11.3 µM.
For `COC(=O)c1ccc(C)cc1CC1Cc2cccc(C)c2C1=O` (stereo not drawn), the TGI was determined as 76.7 µM.
With `Cc1nc2sc3c(N)ncnc3c2c(C)c1C`, the GI50 is more than 25 µM and the TGI is more than 25 µM.
`S=C(N/N=C/c1ccccn1)N1CC2CCC(CC2)C1` displayed a TGI of 10.7 µM.
The same measure, in the same setting: as for `COc1ccc(CNc2nc(NCc3ccc(OC)cc3)nc(NC3CCCC3)n2)cc1`, the figure is 14 µM.
For the molecule `OC1CCCC2CCC[N-]C12.OC1CCCC2CCC[N-]C12.[O]=[V][OH]` (stereo not drawn), the GI50 is 4.14 µM and the TGI is more than 100 µM.
In the same order, the values of `COc1ccc(C(=O)c2cc3c(N)c(C(=O)Nc4cccc(Br)c4C)sc3nc2C)cc1` are 0.382 µM and more than 100 µM.
Consider `CCCCCCCCCCCCCCCC(=O)OCCOCCOCCOCCOCCOC(=O)CCCCCCCCCCCCCCC`, for which the TGI was more than 100 µM.
Consider `O=C(Nc1cc(Cl)ccc1O)c1cccc(Nc2ccnc(C(F)(F)F)c2)c1`, for which the GI50 is 4.27 µM and the TGI turned out to be 32.8 µM.
Consider `COc1cc2c(oc(=O)c3cc4cc([Si](C)(C)C)oc4c(OC)c32)c2cccc(O)c12`, for which the TGI was more than 100 µM.
Still for that read-out and setting: as for `CC1(C)Cc2c(oc3ncnc(N)c23)CS1`, the figure is more than 100 µM; as for `COC(=O)CC(C(C(=O)OC)C(=O)OC)N1C(=O)OC(c2ccccc2)C1c1ccccc1` (stereo not drawn), more than 100 µM; as for `COc1ccc(-c2csc(Cc3nc4c(Br)cc(Br)cc4c(=O)n3-c3ccc(OC)cc3)n2)cc1`, more than 100 µM.
Consider `CC(=O)Oc1c2ccsc2c(OC(C)=O)c2ccsc12`, for which the TGI was 2.37 µM.
Molecule `CC1C[C@]2(C[C@@H](C)C(=O)O2)OC2CC3(C)C4CCC5C(C)(C)OC(=O)CC[C@@]56C[C@@]46CC[C@]3(C)C12` (stereo partly drawn) had a TGI of more than 100 µM.
Consider `C#C[C@@]1(O)[C@@H](CO)O[C@@H](n2cc(C(F)(F)F)c3c(N)ncnc32)[C@@H]1O`, for which the GI50 is 1.45 µM and the TGI is 8.01 µM.
Regarding `Clc1cccc(CNc2c3ccccc3nc3ccccc23)c1`, the GI50 is 1.93 µM and the TGI stood at 6.04 µM.
Consider `CCc1c(CNC2=NCCN2)c(CC)c(CNC2=NCCN2)c(CC)c1CNC1=NCCN1`, for which the TGI is more than 100 µM.
With `[N-]=[N+]=NCCCn1c2c(c3ccc([N+](=O)[O-])cc3c1=O)C(=O)c1cc(-c3ccccc3)ccc1-2`, the GI50 is more than 100 µM and the TGI is more than 100 µM.
On to `C=C1C(=O)O[C@H]2[C@H]1CC/C(COC(=O)/C=C\C(=O)NCc1ccc(Cn3c(=O)sn(CCI)c3=O)cc1)=C\CC[C@@]1(C)O[C@@H]21`, for which the GI50 was 14.5 µM and the TGI was 27.7 µM.
With `COCN(C)c1nc(N(C)C)nc(N(C)C)n1`, the TGI is more than 100 µM.
`Cc1ccc(S(=O)(=O)N/N=C2\CCC3(O)CC2(C)CCC2C3CC2(C)C)cc1` (stereo not drawn) gave a TGI of more than 100 µM.
With `Cn1c2ccccc2c2ccc3c(c21)C(=O)C(c1ccccc1)=CC3=O`, the TGI is more than 100 µM.
`Cc1ccc(-c2nc(-c3nccc4ccccc34)oc2-c2ccccc2)cc1`: the TGI came to 65.4 µM.
Consider `COc1ccc(N=Nc2ccc3oc(=O)c(C(=O)Nc4ccccc4C)cc3c2)cc1`, for which the TGI was more than 10 µM.
Take `Oc1ccc2ccccc2c1C=NCc1c(O)ccc2ccccc12`: the TGI was more than 100 µM.
For `COCCc1n(Cc2ccc3ccccc3c2)c2ccccc2[n+]1Cc1ccc2ccccc2c1`, the GI50 was 1.26 µM and the TGI came out at 2.6 µM.
The molecule `CCNC1=C(NC(=O)c2ccccc2)C(=O)c2ccccc2C1=O` had a TGI of more than 100 µM.
`CC(C)(C)OC(=O)[C@@H]1ON2O[C@H](OC3CCCC3(c3ccccc3)c3ccccc3)C[C@H]3OC(=O)[C@@H]1[C@H]32` (stereo partly drawn) gave a TGI of more than 100 µM.
`Oc1ccc(C(O)(c2ccccc2)c2ccccc2)c2ccccc12` displayed a TGI of 6.86 µM.
On the same count and under the same terms, to `CCN(CC)C(=S)SCC(=O)Nc1nc2c(s1)CCCC2` belongs more than 100 µM.
On the same count and under the same terms, to `COc1ccccc1/C=C1\S/C(=N/Nc2nc(C)c(C(C)=O)s2)NC1=O` belongs more than 100 µM.
As for `Cn1c(=O)c(Oc2ccc(F)cc2F)cc2cnc(N[C@@H]3CCOC3)nc21`, the GI50 was more than 25 µM and the TGI is more than 25 µM.
As for `O=C(CCC(=O)Nc1cccc(C(F)(F)F)c1)CC(=O)c1ccc2ccccc2c1`, the TGI was more than 100 µM.
Take `Nc1nc2c(-c3ccc([N+](=O)[O-])cc3)nnn2c2ccccc12`: the TGI was more than 100 µM.
On the same count and under the same terms, as for `O=c1[nH][nH]c(=O)n1/N=C/c1ccccc1`, the figure is more than 100 µM; as for `COC(=O)Cc1c([C@H]2[C@H](CC(=O)OC)c3ccccc3N2S(=O)(=O)c2ccc(C)cc2)[nH]c2ccccc12`, more than 100 µM.
`COc1cc([C@@H]2c3cc4c(cc3[C@@H](OC(=O)c3cccc(N)c3)C3COC(=O)[C@@H]32)OCO4)cc(OC)c1O` (stereo partly drawn) showed a TGI of more than 100 µM.
On the same count and under the same terms, to `c1ccc2c(c1)Cc1c(Cc3csc4ccccc34)ccc3cccc-2c13` belongs more than 100 µM.
On the same count and under the same terms, as for `COc1c(I)c(OC)c2c(c1I)O[C@@H]1OCC[C@H]21`, the figure is more than 100 µM.

For the origin of these results see PubChem BioAssay (NCI).
